# The supplement of paper PMC3334620
# In all, about 33,000 sequences were measured (“E-score (-0.5 to 0.5)”: median about -0.012, highest 2% from about 0.27 on). The list shows a part of the results.
# Target: T1, Vhr1 (UniProt P40522)
# T1 sequence: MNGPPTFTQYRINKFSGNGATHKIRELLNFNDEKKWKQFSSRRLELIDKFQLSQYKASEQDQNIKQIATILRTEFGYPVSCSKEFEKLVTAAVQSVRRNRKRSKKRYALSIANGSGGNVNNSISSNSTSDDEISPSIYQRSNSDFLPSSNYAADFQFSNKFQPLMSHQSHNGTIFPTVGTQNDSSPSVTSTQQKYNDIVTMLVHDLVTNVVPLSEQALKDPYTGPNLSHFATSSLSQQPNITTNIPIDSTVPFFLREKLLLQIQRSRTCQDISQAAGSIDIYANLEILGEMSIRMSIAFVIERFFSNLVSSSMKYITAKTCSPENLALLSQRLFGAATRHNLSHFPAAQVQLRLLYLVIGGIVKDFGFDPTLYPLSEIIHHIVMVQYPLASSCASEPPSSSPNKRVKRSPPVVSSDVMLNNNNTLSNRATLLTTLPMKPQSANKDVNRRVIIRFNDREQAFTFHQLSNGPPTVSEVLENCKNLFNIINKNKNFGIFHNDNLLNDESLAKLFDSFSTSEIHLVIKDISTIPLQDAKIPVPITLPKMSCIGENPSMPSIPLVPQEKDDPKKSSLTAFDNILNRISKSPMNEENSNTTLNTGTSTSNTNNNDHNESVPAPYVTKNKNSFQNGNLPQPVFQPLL
# Assay: PBM E-score (8-mer binding enrichment) (E-score (-0.5 to 0.5)); higher = stronger / more preferred TF binding; most listed sequences are background and not binding sites
# Settings: protein concentration: 200 nM; construct: GST-full length
# In short: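 Yeast transcription factors, full-length or as DNA-binding domains, were expressed with a GST tag using PURExpress in vitro transcription/translation. At about 100-200 nM they were applied to universal all-10-mer Agilent arrays, double-stranded by primer extension on fresh or once-stripped slides. Fluorescent anti-GST detected bound protein, and masliner normalised the scans. E-scores for ungapped eight-base words, pooled with reverse complements, came from the Universal PBM Analysis Suite.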
row,Sequence,PBM E-score
1,CGTACGAG,-0.113
2,GCGTGAAC,-0.205
3,AAGGTGGC,-0.0942
4,CTATGAAG,-0.17
5,ATGCGCAT,0.173
6,CGATGAGC,0.182
7,AATAGTAC,0.0635
8,ATCGGGCG,-0.179
9,CGGTTCAA,0.0706
10,GGGGTAAC,-0.0637
11,AGCGTGGA,-0.161
12,ATTGCTAG,-0.212
13,ACAGGCTC,0.0699
14,GGAGCTCA,-0.197
15,CACAGCCG,0.281
16,AGTCCTTA,-0.0339
17,CCGTTAAA,-0.141
18,CTCAGAAC,0.0205
19,AACATCGA,0.114
20,GCCAGGGA,-0.0435
21,ATCACAAA,0.0164
22,AGAGAACG,-0.138
23,ATGTTTAA,-0.00863
24,AGAAGTCA,0.27
25,ATACTGTC,0.137

row,Sequence,PBM E-score
1,CTCCTGCA,-0.0766
2,AGGCGCGC,-0.0286
3,CATCCGAG,0.15
4,CGTGTTAA,-0.0374
5,GGCACACA,0.156
6,GCTTTCAA,-0.145
7,CGTGCCAC,-0.136
8,CGACAGAA,0.00139
9,ACAAAGGG,-0.123
10,CGGCTACG,-0.0504
11,GAGTCTAA,-0.185
12,ATGTACAG,0.061
13,CAATTCGA,-0.284
14,GCTTATCC,0.0124
15,CGACGTAG,-0.267
16,CAGTCCAC,0.0259
17,CCAGGTAG,0.0644
18,ATCAGGAT,0.146
19,CTTCAAAG,-0.278
20,ACCGTACG,-0.23
21,GGATCGAC,0.081
22,ACAACCCT,0.00715
23,ATTTGAAA,-0.182
24,ACATCAAA,-0.0469
25,CCAAAGGA,-0.185

row,Sequence,PBM E-score
1,ATGTCCAG,-0.098
2,AGAGATGC,-0.107
3,ATCCGGAT,0.131
4,ATCCGGTA,0.0588
5,AGAATTTC,-0.195
6,AGTTACCC,-0.0374
7,GCCAATGA,0.0656
8,GACGCTGC,-0.344
9,ACTCAACA,0.289
10,GGACCGCA,0.0275
11,CGTGAGGA,-0.0762
12,AGACGCAG,0.0706
13,CTTACCGC,0.109
14,CTACCAAC,-0.0255
15,ACCCTAGA,0.0664
16,ACTAAAGA,-0.158
17,CAGTTTTA,-0.0945
18,TATAAGCA,0.00418
19,GTACCTGA,0.19
20,AAGCACTG,0.0811
21,CAAGGCAC,-0.0306
22,GTAGTTCA,-0.166
23,CCCCGGGC,-0.00428
24,CTGTGGAC,0.0543
25,GAGGACTC,0.132

row,Sequence,PBM E-score
1,CCGTTTGC,-0.183
2,AACTCCTA,0.017
3,AGATATTG,0.165
4,TGACGCAA,-0.142
5,AACTGCAT,0.176
6,CACCGGCG,0.154
7,AATACTGT,0.108
8,AACCTGAT,0.17
9,CCAGCTTA,-0.0602
10,AATATAAG,0.2
11,GGCAGAGA,-0.108
12,AGTGGGGG,-0.308
13,AGAAGTTG,-0.226
14,ATGGAGCC,-0.0157
15,TAATGTGA,0.0633
16,ACGAATCA,0.336
17,CGGCCATC,-0.177
18,AATATGCT,-0.0531
19,CAATCCTC,0.0047
20,CGAATAAA,-0.114
21,CGAGGCAA,0.0337
22,TCACTCGA,-0.0792
23,CAGACACA,0.207
24,AGTTGCTA,0.125
25,CTAGGGTC,-0.266

row,Sequence,PBM E-score
1,CACGGGCG,0.131
2,AGGCACAG,-0.0624
3,ATCGGTAA,0.0902
4,AGCCTTGA,-0.116
5,ACAAAGAA,-0.116
6,GAATAAGC,-0.0432
7,GATCGGAA,-0.121
8,ATTAACTG,0.224
9,GATAATGC,0.114
10,GTCTCCTA,-0.186
11,CTGAGGCC,-0.134
12,TGCTAGAA,-0.167
13,AACAGCGT,-0.0999
14,CAAACCCC,-0.132
15,CGTGACGC,-0.144
16,AATCAGCT,0.199
17,AGTGTTGG,0.107
18,CGTTGTTA,-0.118
19,GAGGCGCC,-0.106
20,CGAGTACG,0.0468
21,CAACTACG,0.0145
22,TAGGAAGA,-0.132
23,CACCCCAC,0.258
24,ACCAAGGT,-0.0495
25,TCTGTAAA,-0.0857

row,Sequence,PBM E-score
1,ACCATCCT,0.0534
2,AAATATCG,0.0313
3,CGCTGGGA,-0.0413
4,AGACGGGC,0.00874
5,AAGTCTCT,-0.338
6,ATCTACAG,0.0297
7,CAATGTGA,0.106
8,GAGCTCAC,0.102
9,GCTGGCCA,-0.0437
10,CCTACTTA,-0.0958
11,ACAGACAA,0.185
12,CGCACGCA,-0.00175
13,CAGGGACA,-0.0096
14,GTATTTCA,-0.205
15,AGCTCGGA,-0.107
16,ACGGATTC,0.0689
17,TATGCGGA,0.0534
18,TACCCCTA,-0.0556
19,TAGATCTA,-0.0662
20,ATATCAAA,0.061
21,AGCCGTTC,-0.109
22,CGCAAGCG,0.185
23,GGTCGGAC,0.0737
24,AGTGTAGA,0.121
25,GACAGAGC,-0.0414

row,Sequence,PBM E-score
1,AACTGGGA,-0.216
2,GCTACCCA,0.0505
3,AAAAAGGG,-0.0897
4,AGGGAAAA,-0.139
5,AGAGGGTC,-0.287
6,CTGCATTC,0.0926
7,CAACACAC,0.268
8,AAGTCGTC,-0.00836
9,ATGATAAA,0.093
10,ATATACGG,-0.0378
11,CCCCAAAA,-0.0927
12,CATCTAGG,0.00943
13,CTTCGTAA,-0.218
14,CCTAATAA,-0.208
15,ATAAGCCC,-0.167
16,GGATACGA,-0.0506
17,ACTCGATG,0.164
18,CAGGCCTG,-0.0801
19,CGCAGGGA,-0.136
20,CCTCAGGA,-0.0996
21,AAAACCCA,-0.0113
22,GCTCGCAA,0.0852
